{"source": "the supplement of paper PMC11417369", "note": "± gives the standard deviation of the averaged measurements. Some of the results follow."}
{"system": "PfAP2-G AP2 domain (GST-tagged)", "experiment": "gcPBM binding intensity (ln(normalized median fluorescence intensity)); higher = stronger DNA binding", "outline": "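In this array assay, P. falciparum DNA-binding domains with a GST tag, expressed in E. coli, were applied for 1 h to primer-extended double-stranded 36-bp intergenic genomic probes and negative controls on an Agilent 4 × 180k array. Bound protein was visualised with Alexa488 anti-GST antibody at 488 nm. Binding intensity is the highest Masliner-normalised natural-log median intensity across replicate spots of either probe orientation.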"}
{"sequence": "TATTTTCCCTCCATATGTACTTAATTATAAGCACAT [XGTACX_site4000]", "gcPBM binding intensity (ln)": "11.2 ± 0.89"}
{"sequence": "TATATATCGCATAAAACACACAAAAAAAAAATTAAA [CACACA_site7767]", "gcPBM binding intensity (ln)": "9.94 ± 0.21"}
{"sequence": "ATATATATCTTTTGTGTGCACATATATATAATATAT", "gcPBM binding intensity (ln)": "10.5 ± 0.35"}
{"sequence": "AAAAAAAAAATATACACACACACATACACATAAATA [CACACA_site3808]", "gcPBM binding intensity (ln)": "10.14 ± 0.092"}
{"sequence": "TTATATTCTATTTATTGTACTTAAATATATATATAT [XGTACX_site6400]", "gcPBM binding intensity (ln)": "11.2 ± 0.95"}
{"sequence": "ATTTCATTTATAAGGATATCTACTTTTTATTTTAAT [GTGCAC_negctrl_site59]", "gcPBM binding intensity (ln)": "9.915 ± 0.049"}
{"sequence": "AAACGAAAAAAATGGTGTACATTAAAATGAAAATTG [XGTACX_site7040]", "gcPBM binding intensity (ln)": "11.5 ± 0.88"}
{"sequence": "TCTATCTTTTCCAAACGTACATTTTTTATATAAATT [XGTACX_site5352]", "gcPBM binding intensity (ln)": "11.1 ± 0.58"}
{"sequence": "CACCAAACTAAATGTACACACATACATAAATATAAA [CACACA_site4765]", "gcPBM binding intensity (ln)": "11.3 ± 0.88"}
{"sequence": "AAAAACAAAAAAAAAACACACAATTCTAGTTATTTT [CACACA_site2767]", "gcPBM binding intensity (ln)": "9.61 ± 0.23"}
{"sequence": "ACTTTATTTTCCTGTACACACATTTGACATATTAAA [CACACA_site3378]", "gcPBM binding intensity (ln)": "11.6 ± 0.94"}
{"sequence": "TTTTTTATTTTATTTTATTTTTATTTTTTTTTTTTT [GTGCAC_negctrl_site596]", "gcPBM binding intensity (ln)": "9.54 ± 0.085"}
{"sequence": "AACATTATTTTGTGTACACATTCGGTTATATTATAT [CACACA_site5628]", "gcPBM binding intensity (ln)": "11.8 ± 1"}
{"sequence": "AAAAAAAAGAAACACACACACATACACATAAATATA [CACACA_site3807]", "gcPBM binding intensity (ln)": "10 ± 0.057"}
{"sequence": "ATATTTTTTTCATAGACACACACAATATATCTGTTT [CACACA_site8993]", "gcPBM binding intensity (ln)": "9.94 ± 0.057"}
{"sequence": "TTTTTTTTCCTAATGTGTACTAAAAATGAACAATAA [XGTACX_site5248]", "gcPBM binding intensity (ln)": "11.4 ± 0.99"}
{"sequence": "AGTTTTTACTCTAATGGTACAGTGCAACTAATAAAT [XGTACX_site6950]", "gcPBM binding intensity (ln)": "10.9 ± 0.61"}
{"sequence": "TAAACATAAATATGCACACATATACAGATATTCATA [CACACA_site5471]", "gcPBM binding intensity (ln)": "9.825 ± 0.035"}
{"sequence": "TTTTACTTAAGACACACACACACAAAAAAAAAAAAA [CACACA_site6573]", "gcPBM binding intensity (ln)": "10.1 ± 0.59"}
{"sequence": "ATAAAATACATATAAACACACATATAAACCGACATA [CACACA_site2477]", "gcPBM binding intensity (ln)": "9.97 ± 0.071"}
{"sequence": "TAAGTATACACATACACACACACACTAAAAAAAAAA [CACACA_site6337]", "gcPBM binding intensity (ln)": "10.2 ± 0.35"}
{"sequence": "TTTATGTAAAAATATAGTACATATTAAAAGATAAGA [XGTACX_site8134]", "gcPBM binding intensity (ln)": "11.2 ± 0.8"}
{"sequence": "ATATATTCCATAAAGGTGCTGTTAACGTGTCAACGT [GTGCAC_site9402]", "gcPBM binding intensity (ln)": "10.1 ± 0.14"}
{"sequence": "AAAAAATATAAAAAAAGTACACAAAAACTACAAAAA [XGTACX_site2677]", "gcPBM binding intensity (ln)": "11.6 ± 1"}
{"sequence": "TTTAATCATTTTATTTGTACTCATAAAAAATATAAT [XGTACX_site5537]", "gcPBM binding intensity (ln)": "11.3 ± 1"}
{"sequence": "AAAAAGAGGAAAAAGATAAAGAAATTAAAGGAGAGA [CACACA_negctrl_site423]", "gcPBM binding intensity (ln)": "9.775 ± 0.049"}
{"sequence": "TATCATTGTTCATGCTTGCACTTTTGTTACTGTTCC [GTGCAC_site9425]", "gcPBM binding intensity (ln)": "10.16 ± 0.014"}
{"sequence": "GAAAATTTATATTGCACACATAGGGAATAAAAAAAA [CACACA_site2146]", "gcPBM binding intensity (ln)": "10.2 ± 0.11"}
{"sequence": "TGTATGAAAATAAATGCATGCCAAATATATATATAT [TGCATGCA_site132]", "gcPBM binding intensity (ln)": "9.94 ± 0.33"}
{"sequence": "AAAATGAAATATGTTATATATATATATATATATATA [CACACA_negctrl_site1752]", "gcPBM binding intensity (ln)": "9.94 ± 0.69"}
{"sequence": "TCTGTAAACATATTCACACACATAAATTCGCATATA [CACACA_site1866]", "gcPBM binding intensity (ln)": "9.95 ± 0.11"}
{"sequence": "ACAAAATAATTGTTTACACACCCATTTGTAATTTTA [CACACA_site3615]", "gcPBM binding intensity (ln)": "9.93 ± 0.099"}
{"sequence": "ATGGACAAGTTAAACGCACACAAATATATACAGACA [CACACA_site1652]", "gcPBM binding intensity (ln)": "10.5 ± 0.31"}
{"sequence": "TAATATGAAATGTGTACACACGCACCCACAAAAAAA [CACACA_site8949]", "gcPBM binding intensity (ln)": "11.8 ± 0.93"}
{"sequence": "GTTTATGTATTATTATGTACGTATCATAATATATAT [XGTACX_site2385]", "gcPBM binding intensity (ln)": "11.5 ± 0.82"}
{"sequence": "TAATTTCCTTAAGAATGTACTTACATTTTATTATTT [XGTACX_site5998]", "gcPBM binding intensity (ln)": "11.1 ± 0.63"}
{"sequence": "TTTTTATTATTTAAATGTACATATAAATATATATAT [XGTACX_site6870]", "gcPBM binding intensity (ln)": "11.2 ± 0.71"}
{"sequence": "ATGTTTTTAATTTATTGTACATTAATTTGTATTATT [XGTACX_site253]", "gcPBM binding intensity (ln)": "11 ± 0.67"}
{"sequence": "TTTTCTTTTCTCTTCTTTTTCTCCCATTATTAATCT [XGTACX_negctrl_site406]", "gcPBM binding intensity (ln)": "9.72 ± 0.18"}
{"sequence": "GAGGATGCCTATGGCACACATTATAAAACTGTCGCT [CACACA_site4322]", "gcPBM binding intensity (ln)": "10.04 ± 0.014"}
{"sequence": "AAGAAGAAACGGAAAAGTACAAAGAAGAAATAAGTA [XGTACX_site3680]", "gcPBM binding intensity (ln)": "11.1 ± 0.67"}
{"sequence": "CTTACAGACATATATACACACATGTATATTTTATAT [CACACA_site549]", "gcPBM binding intensity (ln)": "10.02 ± 0.085"}
{"sequence": "AGAAATATCTAATTGTGTACTCAAGAAAAAGTTACG [XGTACX_site372]", "gcPBM binding intensity (ln)": "11.5 ± 0.93"}
{"sequence": "CATAAAATTGTGAAGTGTACATATTTTTAAATATAA [XGTACX_site8986]", "gcPBM binding intensity (ln)": "11.5 ± 0.76"}
